This note sets out measurements from paper PMC12820563, “FoxP3 forms a head-to-head dimer in vivo and stabilizes its multimerization on adjacent microsatellites”.

This is one part of the list.

The experiment addresses T1, MBP-FoxP1dN (Mus musculus, UniProt P58462 326-579).
T1 sequence: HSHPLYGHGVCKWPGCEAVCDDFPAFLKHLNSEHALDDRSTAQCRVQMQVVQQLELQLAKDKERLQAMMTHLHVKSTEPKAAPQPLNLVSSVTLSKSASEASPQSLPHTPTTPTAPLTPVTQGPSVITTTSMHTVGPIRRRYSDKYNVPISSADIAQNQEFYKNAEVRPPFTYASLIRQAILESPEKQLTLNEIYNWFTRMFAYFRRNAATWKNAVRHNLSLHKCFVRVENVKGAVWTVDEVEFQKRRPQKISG
Briefly: PD-seq (MBP pull-down with sequencing); 20 mM Tris-HCl pH 7.5, 100 mM NaCl, 1.5 mM MgCl2, 0.4 uM protein, 0.1 uM dsDNA library, 30 min, room temperature, amylose pull-down; high values mean tight binding. The settings on record: protein: recombinant; tags: His6-MBP; chain copies: 2; dsDNA, one strand shown. The essentials:
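Binding is the reads-per-million enrichment of pull-down relative to input, pooled across replicates. For this, 0.4 µM His6-MBP-tagged mouse FoxP3 or FoxP1 fragment lacking the N-terminus, made in E. coli, was incubated with 0.1 µM Klenow-filled double-stranded degenerate DNA library for 30 min at room temperature in Tris pH 7.5 buffer with NaCl and MgCl2. Complexes bound to amylose resin were washed three times before proteinase K released the DNA for PCR barcoding and Illumina sequencing.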
“GATGATTGTTCTCCCAGCTGATGAATTGGTCGGGTCGAGTAAACAAATTTTCCTAATCTTTCTGTTCAAGCGCCATCTAC”: the binding signal is 0.831 RPM ratio (pull-down/input).

“GATGATTGTTCTCCCAGCTGATGAATTCCAACGGTCGAGTAAACAAATTTTCCTAATCTTTCTGTTCAAGCGCCATCTAC”: the binding signal was 0.817 RPM ratio (pull-down/input).

On to “GATGATTGTTCTCCCAGCTGATGAATTAATTCACTCGAGTAAACAAATTTTCCTAATCTTTCTGTTCAAGCGCCATCTAC”, for which the binding signal is 0.938 RPM ratio (pull-down/input).

For “GATGATTGTTCTCCCAGCTGATGAATTCTAAGCGTCGAGTAAACAAATTTTCCTAATCTTTCTGTTCAAGCGCCATCTAC”, the binding signal was 0.886 RPM ratio (pull-down/input).

In the case of “GATGATTGTTCTCCCAGCTGATGAATTAAGGAACTCGAGTAAACAAATTTTCCTAATCTTTCTGTTCAAGCGCCATCTAC”, the binding signal was 0.833 RPM ratio (pull-down/input).

“GATGATTGTTCTCCCAGCTGATGAATTCACCATATCGAGTAAACAAATTTTCCTAATCTTTCTGTTCAAGCGCCATCTAC”: the binding signal is 0.984 RPM ratio (pull-down/input).

As for “GATGATTGTTCTCCCAGCTGATGAATTAGGACCCTCGAGTAAACAAATTTTCCTAATCTTTCTGTTCAAGCGCCATCTAC”, the binding signal was 0.894 RPM ratio (pull-down/input).

For “GATGATTGTTCTCCCAGCTGATGAATTAACCTTATCGAGTAAACAAATTTTCCTAATCTTTCTGTTCAAGCGCCATCTAC”, the binding signal is 0.853 RPM ratio (pull-down/input).

In the case of “GATGATTGTTCTCCCAGCTGATGAATTTACAGGATCGAGTAAACAAATTTTCCTAATCTTTCTGTTCAAGCGCCATCTAC”, the binding signal was 1.2 RPM ratio (pull-down/input).

In the case of “GATGATTGTTCTCCCAGCTGATGAATTTCAGTCTTCGAGTAAACAAATTTTCCTAATCTTTCTGTTCAAGCGCCATCTAC”, the binding signal was 0.74 RPM ratio (pull-down/input).

Turning to “GATGATTGTTCTCCCAGCTGATGAATTCTAATGTTCGAGTAAACAAATTTTCCTAATCTTTCTGTTCAAGCGCCATCTAC”, the binding signal is 1 RPM ratio (pull-down/input).

On to “GATGATTGTTCTCCCAGCTGATGAATTACGCTAATCGAGTAAACAAATTTTCCTAATCTTTCTGTTCAAGCGCCATCTAC”, for which the binding signal was 1.12 RPM ratio (pull-down/input).

Turning to “GATGATTGTTCTCCCAGCTGATGAATTGAAAGGTTCGAGTAAACAAATTTTCCTAATCTTTCTGTTCAAGCGCCATCTAC”, the binding signal is 0.83 RPM ratio (pull-down/input).

With “GATGATTGTTCTCCCAGCTGATGAATTTAGCATTTCGAGTAAACAAATTTTCCTAATCTTTCTGTTCAAGCGCCATCTAC”, the binding signal was 1.21 RPM ratio (pull-down/input).

As for “GATGATTGTTCTCCCAGCTGATGAATTCTTCATCTCGAGTAAACAAATTTTCCTAATCTTTCTGTTCAAGCGCCATCTAC”, the binding signal is 0.813 RPM ratio (pull-down/input).

Take “GATGATTGTTCTCCCAGCTGATGAATTATTTTCGTCGAGTAAACAAATTTTCCTAATCTTTCTGTTCAAGCGCCATCTAC”: the binding signal was 1.28 RPM ratio (pull-down/input).

With “GATGATTGTTCTCCCAGCTGATGAATTAATAGCATCGAGTAAACAAATTTTCCTAATCTTTCTGTTCAAGCGCCATCTAC”, the binding signal is 1.33 RPM ratio (pull-down/input).

Turning to “GATGATTGTTCTCCCAGCTGATGAATTGATGCCCTCGAGTAAACAAATTTTCCTAATCTTTCTGTTCAAGCGCCATCTAC”, the binding signal was 1.11 RPM ratio (pull-down/input).

Turning to “GATGATTGTTCTCCCAGCTGATGAATTACTTCCGTCGAGTAAACAAATTTTCCTAATCTTTCTGTTCAAGCGCCATCTAC”, the binding signal is 1 RPM ratio (pull-down/input).

For the sequence “GATGATTGTTCTCCCAGCTGATGAATTTCGGGTTTCGAGTAAACAAATTTTCCTAATCTTTCTGTTCAAGCGCCATCTAC”, the binding signal was 0.828 RPM ratio (pull-down/input).

For “GATGATTGTTCTCCCAGCTGATGAATTTGCTTTATCGAGTAAACAAATTTTCCTAATCTTTCTGTTCAAGCGCCATCTAC”, the binding signal was 1.1 RPM ratio (pull-down/input).

As for “GATGATTGTTCTCCCAGCTGATGAATTTCTTAGATCGAGTAAACAAATTTTCCTAATCTTTCTGTTCAAGCGCCATCTAC”, the binding signal was 0.853 RPM ratio (pull-down/input).

For the sequence “GATGATTGTTCTCCCAGCTGATGAATTAACATGTTCGAGTAAACAAATTTTCCTAATCTTTCTGTTCAAGCGCCATCTAC”, the binding signal is 1.05 RPM ratio (pull-down/input).

On to “GATGATTGTTCTCCCAGCTGATGAATTGACCTGGTCGAGTAAACAAATTTTCCTAATCTTTCTGTTCAAGCGCCATCTAC”, for which the binding signal was 0.841 RPM ratio (pull-down/input).

On to “GATGATTGTTCTCCCAGCTGATGAATTAGACCCCTCGAGTAAACAAATTTTCCTAATCTTTCTGTTCAAGCGCCATCTAC”, for which the binding signal was 0.845 RPM ratio (pull-down/input).

For the sequence “GATGATTGTTCTCCCAGCTGATGAATTGAGTGGCTCGAGTAAACAAATTTTCCTAATCTTTCTGTTCAAGCGCCATCTAC”, the binding signal was 0.823 RPM ratio (pull-down/input).

With “GATGATTGTTCTCCCAGCTGATGAATTTGCGGAATCGAGTAAACAAATTTTCCTAATCTTTCTGTTCAAGCGCCATCTAC”, the binding signal was 1.02 RPM ratio (pull-down/input).

For the sequence “GATGATTGTTCTCCCAGCTGATGAATTGCTCAAGTCGAGTAAACAAATTTTCCTAATCTTTCTGTTCAAGCGCCATCTAC”, the binding signal is 0.907 RPM ratio (pull-down/input).

“GATGATTGTTCTCCCAGCTGATGAATTTACCCCATCGAGTAAACAAATTTTCCTAATCTTTCTGTTCAAGCGCCATCTAC”: the binding signal is 1.19 RPM ratio (pull-down/input).

As to “GATGATTGTTCTCCCAGCTGATGAATTAAAGTGTTCGAGTAAACAAATTTTCCTAATCTTTCTGTTCAAGCGCCATCTAC”, the binding signal was 1.05 RPM ratio (pull-down/input).

As for “GATGATTGTTCTCCCAGCTGATGAATTAGTCGTGTCGAGTAAACAAATTTTCCTAATCTTTCTGTTCAAGCGCCATCTAC”, the binding signal was 0.885 RPM ratio (pull-down/input).

As to “GATGATTGTTCTCCCAGCTGATGAATTGGATGTTTCGAGTAAACAAATTTTCCTAATCTTTCTGTTCAAGCGCCATCTAC”, the binding signal was 1.08 RPM ratio (pull-down/input).
